Measurements reported in patent publication US20230265152A1, “GLP-1R AGONIST / FGF21 FUSION PROTEINS” (SANOFI, priority 2020, published 2023).

Assays:
[1] = Conformational and thermal stability on UNit (intrinsic fluorescence BCM and static light scattering); format: physicochemical; conditions: for Tagg: UNit SLS 266 nm, 5 mg/mL in phosphate buffer pH 7.4; for Tm: UNit, 5 mg/mL in phosphate buffer pH 7.4, 20 to 95° C. at 0.3° C./min
Experimental: Conformational stability and propensity to aggregate was determined simultaneously for the GLP-1RA/FGF21 Fc fusion proteins using a UNit (Unchained Labs, CA, USA). The UNit combines the analysis of intrinsic fluorescence of a protein to detect unfolding of the protein and a Static Light Scattering (SLS) measurement in order to investigate the aggregation behavior.
Data were acquired for the fusion proteins at a concentration of 5 mg/mL formulated in phosphate buffer at pH 7.4. A volume of 9 µL of each sample were loaded into a UNi capillary holder and analyzed in triplicate on the UNit. The temperature was increased from 20 to 95° C. at a constant linear rate of 0.3° C./min. The BaryCentric Mean (BCM) indicating the intrinsic fluorescence and SLS signals detected with a 266 nm laser were plotted against the applied temperature in order to obtain melting temperatures (Tm) and aggregation onset temperatures (Tagg). Data were analyzed using the UNit Analysis software v.

[2] = Pharmacokinetics after single subcutaneous administration in mouse; format: in vivo, female C57Bl/6 mice; conditions: 0.3 mg/kg s.c.
Experimental: (§1) Plasma concentrations and pharmacokinetic parameters of GLP-1RA/FGF21 Fc fusion proteins were determined after single subcutaneous administration of 0.3 mg/kg in solution to female C57Bl/6 mice or male Cynomolgus monkeys using three different methods. Blood samples were obtained at time points from 30 minutes to 168 hours after dosing.
(§2) Plasma samples were analyzed for the intact FGF21 part of the fusion proteins with an ELISA kit (F1231-K01, Eagle Biosciences, USA). The assay utilized the two-site sandwich technique with two selected antibodies that bound to different epitopes of human intact FGF21. One of the antibodies specifically bound to the N-terminal amino acids (aa 29-35) of human FGF21, and the other antibody specifically bound to the C-terminus (aa 203-209) of human FGF21. Assay standards, controls and unknown samples were added directly to wells of microplate that was coated with an anti-human FGF21 (aa 29-35)-specific antibody. Simultaneously, a horseradish peroxidase conjugated anti-human FGF21 (aa 203-209)-specific antibody was added to each well. After the first incubation period, the antibody on the walls of the microtiter wells captured human FGF21 in the sample and unbound protein in each microtiter well was washed away. A “sandwich” of “anti-FGF21 antibody-human intact FGF21-HRP conjugated tracer antibody” was formed. […] For the detection of the immunocomplex, the well was then incubated with a substrate solution in a timed reaction and then measured in a spectrophotometric microplate reader. […]
(§3) The concentration of the full-length GLP-1RA/FGF21 Fc fusion proteins in plasma were determined utilizing an ELISA method. […] Following washing 3 times with 300 µL PBS-T 150 µL read buffer was added to the wells.
(§4) Plasma samples were analyzed for the intact GLP-1 part of the fusion proteins with a GLP-1 ELISA method. […] Following washing 3 times with 300 µL PBS-T, 150 µL read buffer was added to the wells.
(§5) The pharmacokinetic parameters were calculated by the program WinNonlin 6.4 using a non-compartmental model and linear trapezoidal interpolation calculation. […]

[3] = Pharmacokinetics after single subcutaneous administration in non-human primate; format: in vivo, male Cynomolgus monkeys; conditions: 0.3 mg/kg s.c.
Experimental: as §1, §2, §3, §4, §5

B1: 1 (protein)
chain: HGEGTFTSDLSKQLEEERVQLFIEWLKATGPSSGAPPPSGGGGGGGSGGGGSGGGGSA[in this place human IgG1 Fc with changes]GGGSGSAHPIPDSSPLLQFGGQVRQRYLYTDDACQTEAHLEIREDGTVGGAADQSPESLLQLKALKPGVIQILGVKTSRFLCQRPDGALYGSLHFDPEACSFRELLLEDGYNVYQSEAHGLPLHLPGCKSPHRDPAPRGPARFLPLPGLPPAPPEPPGILAPQPPDVGSSDPLSMVGSQGRSPSYAS
modifications: Fusion Protein
In the case of B1, the Tagg [1] is reported as 75.5 °C and the Tm [1] is reported as 70.5 °C.

B2: 2 (protein)
chain: HGEGTFTSDLSKQLEEERVQLFIEWLKATGPSSGAPPPSGGGGGGGSGGGGSGGGGSA[in this place human IgG1 Fc with changes]GGGSGSAHPIPDSSPLLQFGGQVRQRYLYTDDACQTEAHLEIREDGTVGGAADQSPESLLQLKALKPGVIQILGVKTSRFLCQRPDGALYGSLHFDPEACSFRELLLEDGYNVYQSEAHGLPLHLPGCKSPHRDPAPRGPARFLPLPGLPPAPPEPPGILAPQPPDVGSSDPLSMVYPSQGRSPSYAS
modifications: Fusion Protein
In the case of B2, the Tagg [1] is reported as 71.5 °C, the Tm [1] is reported as 69.6 °C and the t½ mouse ([2]; assay FGF21 intact) is reported as 27.6 h. It also gave a t½ mouse ([2]; assay GLP-1 intact) of 27.8 h, a t½ mouse ([2]; assay full-length) of 16.1 h and a t½ monkey ([3]; assay FGF21 intact) of 42.5 h. The t½ monkey ([3]; assay GLP-1 intact) was 33.4 h and the t½ monkey ([3]; assay full-length) was 23.5 h.

B3: 4 (protein)
chain: HGEGTFTSDLSKQLEEERVQLFIEWLKATGPSSGAPPPSGGGGGGGSGGGGSGGGGSA[in this place human IgG4 Fc with changes]GGGSGSAHPIPDSSPLLQFGGQVRQRYLYTDDACQTEAHLEIREDGTVGGAADQSPESLLQLKALKPGVIQILGVKTSRFLCQRPDGALYGSLHFDPEACSFRELLLEDGYNVYQSEAHGLPLHLPGCKSPHRDPAPRGPARFLPLPGLPPAPPEPPGILAPQPPDVGSSDPLSMVGSQGRSPSYAS
modifications: Fusion Protein
Work on B3 yielded a Tagg [1] of 64.0 °C and a Tm [1] of 64.9 °C.

B4: 6 (protein)
chain: HGEGTFTSDLSKQLEEERVQLFIEWLKATGPSSGAPPPSGGGGGGGSGGGGSGGGGSA[in this place human IgG4 Fc with changes]GGGSGSAHPIPDSSPLLQFGGQVRQRYLYTDDACQTEAHLEIREDGTVGGAADQSPESLLQLKALKPGVIQILGVKTSRFLCQRPDGALYGSLHFDPEACSFRELLLEDGYNVYQSEAHGLPLHLPGCKSPHRDPAPRGPARFLPLPGLPPAPPEPPGILAPQPPDVGSSDPLSMVYPSQGRSPSYAS
modifications: Fusion Protein
Work on B4 yielded a Tagg [1] of 63.4 °C and a Tm [1] of 64.1 °C.
